# Screen size: about 340,000 compounds; about 12,000 (3.5%) were called active. Inconclusive results, whose numbers are uncertain, are shown with a selection of clear calls. Calls come from the whole dose curve; as a rule, active = well fitted inhibition curve with a large enough effect; inconclusive = small, poorly fitted or top-dose-only effect, or another doubt; inactive = no such curve, though single readings can be large or run the other way. Potencies of inconclusive entries are left out as doubtful fits.
# Experiment: qHTS Assay for Inhibitors of Hepatitis C Virus (HCV)
# Settings: Huh7.5.1 HCVcc-Cre (HCVcc is cell-culture hepatitis C virus) infection, luciferase reporter, 44 h; activity change, negative = inhibition: at 41.8 µM (top of the series) unless noted
# Summary of the method: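 Cells seeded at 1,000/well and cultured 4 h, then compounds added followed by HCVcc-Cre virus (~0.5 moi). After 44 h further culture, luciferase substrate was added, plates held 15 min at room temperature, and luminescence read for 15 sec.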
# % is set by controls: 0 for no effect and ±100 for the full control effect; potency is the fitted concentration of half-maximal effect; tags give direction and shape of the fitted curve.
Structure (SMILES),Potency,"activity change, negative = inhibition"
COc1ccc2c(C)cc(N3CCOCC3)nc2c1,active: 25.1 µM,
O=c1c2ccccc2nc(/C=C/c2ccccc2)n1CCCO,,inactive: -6.85%
Cc1nc(NCc2ccco2)c2oc3ccccc3c2n1,"inconclusive [inhibitor, partial curve]",
CCc1ccc(OCC(=O)NC(NC(=S)Nc2ccccc2)C(Cl)(Cl)Cl)cc1 (stereo unspecified),"inconclusive [inhibitor, single point]",
CCOc1ccc(N(C(=O)c2snc(C(N)=O)c2N)C(C(=O)NCC2CCCO2)c2ccc(C)o2)cc1 (stereo unspecified),,inactive: 3.9%
CC(C)c1ccc(NC(=O)c2ccc3c(c2)CCN3S(C)(=O)=O)cc1,"inconclusive [inhibitor, partial curve]",
O=C(CN1CCN(c2nc(-c3ccccc3)cs2)CC1)NCc1ccc2c(c1)OCO2,"inconclusive [inhibitor, single point]",
O=C(c1ccc(N2CCCS2(=O)=O)cc1)N1CCN(c2ccc(F)cc2)CC1,"inconclusive [inhibitor, single point]",
CCOC(=O)N1CCN(c2ccc(C(=O)c3ccccc3)cc2F)CC1,"inconclusive [inhibitor, single point]",
COc1ccccc1NC(=O)Cn1c(=O)n(CCc2c[nH]c3ccccc23)c(=O)c2cccnc21,"inconclusive [inhibitor, partial curve]",
O=S(=O)(Nc1cccc2ncccc12)c1cccc(C(F)(F)F)c1,,inactive: -6.06%
CC(OC(=O)c1cc(=O)[nH]c2ccccc12)C(=O)N1C(C)CCCC1C (stereo unspecified),,inactive: 1.47%
COC(=O)COc1ccc(C)cc1-n1nc2ccccc2n1,,inactive: 7.08%
COc1ccccc1NS(=O)(=O)c1ccc(N/N=C(\C)C(C)C)c([N+](=O)[O-])c1,"inconclusive [inhibitor, single point]",
COC(=O)c1c(NC(=O)Cn2cnc([N+](=O)[O-])n2)sc2c1CCC(C)C2 (stereo unspecified),"inconclusive [inhibitor, partial curve]",
CC(=O)NC(CC(=O)N(C)Cc1c(F)cccc1Cl)c1ccccc1 (stereo unspecified),,inactive: 1.19%
O=[N+]([O-])c1ccc(O)c(C2CCCCC2)c1,,inconclusive: -83.8% [inhibitor]
COc1cc2c(C#N)c(N3CCc4ccccc4C3)nc(N)c2c(N)n1,"inconclusive [inhibitor, partial curve]",
CCN1CCN(c2nc3ccccc3nc2C(C#N)C(=O)OCc2ccccc2)CC1 (stereo unspecified),,inactive: -30%
CCOc1ccccc1NC(=O)CCN(c1ccc(C)cc1)S(=O)(=O)c1ccccc1,"inconclusive [inhibitor, single point]",
CCC(=O)NCCCc1nc(-c2ccccc2)no1,,inactive: 4.53%
COc1ccc(CC(=O)NNS(=O)(=O)c2ccccc2)cc1OC,,inactive: -2.43%
CCN1C(=O)c2cccc3cccc1c23,"inconclusive [inhibitor, single point]",

Structure (SMILES),Potency,"activity change, negative = inhibition"
Cc1ccc(NC(=O)c2cccnc2)cc1S(=O)(=O)N(C)C,,inactive: 15.3%
Cn1c(C(=O)c2ccncc2)cc2ccccc21,,inactive: 9.94%
CCOc1ccc(S(=O)(=O)Nc2cccc(C(=O)N3CCN(c4cccc(OC)c4)CC3)c2)cc1,"inconclusive [inhibitor, single point]",
Cc1ccc(C(=O)NC(C)C(c2cccs2)N2CCCC2)s1 (stereo unspecified),,inactive: 18.9%
Fc1ccccc1N1CCN(C2CCN(Cc3c[nH]c4ccccc34)CC2)CC1,"inconclusive [inhibitor, partial curve]",
Cn1c(=O)[nH]c(=O)c2c1nc(Sc1ncccn1)n2CCCc1ccccc1,"inconclusive [inhibitor, single point]",
CC1CCC(C(C)C)C(OC(=O)Cn2nnc3c(cnn3-c3ccccc3)c2=O)C1 (stereo unspecified),"inconclusive [inhibitor, single point]",
COc1ccc(CCN2C(=O)CC(NC34CC5CC(CC(C5)C3)C4)C2=O)cc1OC (stereo unspecified),,inactive: -14.7%
c1ccc(-n2c(-c3ccncc3)nnc2N2CCOCC2)cc1,,inactive: 19.4%
CCn1cnc2cc(NC(=O)c3cccs3)ccc21,,inactive: -4.71%
CC(C)=CCc1c2c(c3occ(-c4ccc(O)cc4)c(=O)c3c1O)C=CC(C)(C)O2,"inconclusive [inhibitor, partial curve]",
COc1cc(NC(=O)CNC(=O)Cn2c(C)cc3ccccc3c2=O)cc(OC)c1OC,"inconclusive [inhibitor, single point]",
COc1cc(/C=N/Nc2nc3ccccc3s2)ccc1OC(=O)c1ccccc1F,"inconclusive [inhibitor, single point]",
Nc1nn(S(=O)(=O)c2ccccc2)cc1-c1cccc([N+](=O)[O-])c1,"inconclusive [inhibitor, single point]",
COc1ccc2c(c1)CC(C)C/C2=N\NC(=O)c1ccco1 (stereo unspecified),"inconclusive [inhibitor, partial curve]",
Cc1ccc(S(=O)(=O)Nc2nc(C)cc(NN)n2)cc1,,inactive: -12.9%
O=C(O)c1cc(-c2cccs2)nc2ccc(F)cc12,"inconclusive [inhibitor, single point]",
Cc1ccc(-c2cc(C(=O)N3CCCCC3)c3ccccc3n2)cc1C,"inconclusive [inhibitor, single point]",
CNc1c2c(nn1C)CCCC2,"inconclusive [inhibitor, single point]",
O=C(Nc1ccc(N2CCOCC2)cc1)Nc1ccc2nc(-c3ccco3)c(-c3ccco3)nc2c1,active: 6.31 µM,
Cn1nc(C(F)(F)F)c(C#N)c1N1CCN(c2cccc(C(F)(F)F)c2)CC1,"inconclusive [inhibitor, full curve]",
CCC(C)NS(=O)(=O)c1ccc(S(=O)(=O)N2CC=C(c3ccc(F)cc3)CC2)cc1 (stereo unspecified),"inconclusive [inhibitor, partial curve, poor fit]",
CCCOc1ccc(C(=O)NNC(=S)NC(=O)c2ccccc2)cc1,"inconclusive [inhibitor, single point]",

# Reference: PubChem BioAssay AID651820 (National Center for Advancing Translational Sciences (NCATS), 2012)
